In US12286661B2, “Methods for making high intensity sweeteners” (Firmenich Incorporated, priority 2018, dated 2025):

B1: SEQ ID NO 983: fusion protein having cucurbitadienol synthase activity (protein)
chain: MTTDNAAAYSGSAAPGSGSGSGMWRLKVGKESVGEKEEKWIKSISNHLGRQVWEFCSGENENDDDEAIAVANNSASKFENARNHFRNNRFHRKQSSDLFLAIQCEKEIIRNGAKNEGTTKVKEGEDVKKEAVKNTLERALSFYSAVQTSDGNWASDLGGPMFLLPGLVIALYVTGVLNSVLSKHHRQEMCRYIYNHQNEDGGWGLHIEGSSTMFGSALNYVALRLLGEAADGGEHGAMTKARSWILERGGATAITSWGKLWLSVLGVYEWSGNNPLPPEFWLLPYSLPFHPGRMWCHCRMVYLPMSYLYGKRFVGPITPIVLSLRKELYTIPYHEIDWNRSRNTCAKEDLYYPHPKMQDILWGSIYHVYEPLFSGWPGKRLREKAMKIAMEHIHYEDENSRYICLGPVNKVLNMLCCWVEDPYSDAFKFHLQRIPDYLWLAEDGMRMQGYNGSQLWDTAFSIQAIISTKLIDTFGPTLRKAHHFVKHSQIQEDCPGDPNVWFRHIHKGAWPFSTRDHGWLISDCTAEGLKASLMLSKLPSKIVGEPLEKNRLCDAVNVLLSLQNENGGFASYELTRSYPWLELINPAETFGDIVIDYSYVECTSATMEALALFKKLHPGHRTKEIDAAIAKAANFLENMQKTDGSWYGCWGVCFTYAGWFGIKGLVAAGRTYNNCVAIRKACNFLLSKELPGGGWGESYLSCQNKVYTNLEGNKPHLVNTAWVMMALIEAGQGERDPAPLHRAARLLINSQLESGDFPQQEIMGVFNKNCMITYAAYRNIFPIWALGEYSHRVLDM
modifications: SS5a-E8 Full Gene AA seq
B2: SEQ ID NO 987: fusion protein having cucurbitadienol synthase activity (protein)
chain: MALGNEIANLQEGSAAPGSGSGSGMWRLKVGKESVGEKEEKWIKSISNHLGRQVWEFCSGENENDDDEAIAVANNSASKFENARNHFRNNRFHRKQSSDLFLAIQCEKEIIRNGAKNEGTTKVKEGEDVKKEAVKNTLERALSFYSAVQTSDGNWASDLGGPMFLLPGLVIALYVTGVLNSVLSKHHRQEMCRYIYNHQNEDGGWGLHIEGSSTMFGSALNYVALRLLGEAADGGEHGAMTKARSWILERGGATAITSWGKLWLSVLGVYEWSGNNPLPPEFWLLPYSLPFHPGRMWCHCRMVYLPMSYLYGKRFVGPITPIVLSLRKELYTIPYHEIDWNRSRNTCAKEDLYYPHPKMQDILWGSIYHVYEPLFSGWPGKRLREKAMKIAMEHIHYEDENSRYICLGPVNKVLNMLCCWVEDPYSDAFKFHLQRIPDYLWLAEDGMRMQGYNGSQLWDTAFSIQAIISTKLIDTFGPTLRKAHHFVKHSQIQEDCPGDPNVWFRHIHKGAWPFSTRDHGWLISDCTAEGLKASLMLSKLPSKIVGEPLEKNRLCDAVNVLLSLQNENGGFASYELTRSYPWLELINPAETFGDIVIDYSYVECTSATMEALALFKKLHPGHRTKEIDAAIAKAANFLENMQKTDGSWYGCWGVCFTYAGWFGIKGLVAAGRTYNNCVAIRKACNFLLSKELPGGGWGESYLSCQNKVYTNLEGNKPHLVNTAWVMMALIEAGQGERDPAPLHRAARLLINSQLESGDFPQQEIMGVFNKNCMITYAAYRNIFPIWALGEYSHRVLDM
modifications: SS5d-E7 Full Gene AA seq
B3: SEQ ID NO 991: fusion protein having cucurbitadienol synthase activity (protein)
chain: MPVSVITTSTQPHVKEPVEEESGSAAPGSGSGSGMWRLKVGKESVGEKEEKWIKSISNHLGRQVWEFCSGENENDDDEAIAVANNSASKFENARNHFRNNRFHRKQSSDLFLAIQCEKEIIRNGAKNEGTTKVKEGEDVKKEAVKNTLERALSFYSAVQTSDGNWASDLGGPMFLLPGLVIALYVTGVLNSVLSKHHRQEMCRYIYNHQNEDGGWGLHIEGSSTMFGSALNYVALRLLGEAADGGEHGAMTKARSWILERGGATAITSWGKLWLSVLGVYEWSGNNPLPPEFWLLPYSLPFHPGRMWCHCRMVYLPMSYLYGKRFVGPITPIVLSLRKELYTIPYHEIDWNRSRNTCAKEDLYYPHPKMQDILWGSIYHVYEPLFSGWPGKRLREKAMKIAMEHIHYEDENSRYICLGPVNKVLNMLCCWVEDPYSDAFKFHLQRIPDYLWLAEDGMRMQGYNGSQLWDTAFSIQAIISTKLIDTFGPTLRKAHHFVKHSQIQEDCPGDPNVWFRHIHKGAWPFSTRDHGWLISDCTAEGLKASLMLSKLPSKIVGEPLEKNRLCDAVNVLLSLQNENGGFASYELTRSYPWLELINPAETFGDIVIDYSYVECTSATMEALALFKKLHPGHRTKEIDAAIAKAANFLENMQKTDGSWYGCWGVCFTYAGWFGIKGLVAAGRTYNNCVAIRKACNFLLSKELPGGGWGESYLSCQNKVYTNLEGNKPHLVNTAWVMMALIEAGQGERDPAPLHRAARLLINSQLESGDFPQQEIMGVFNKNCMITYAAYRNIFPIWALGEYSHRVLDM
modifications: SS5d-G5 Full Gene AA seq
B4: SEQ ID NO 995: fusion protein having cucurbitadienol synthase activity (protein)
chain: MSSSKKITSVKQGSAAPGSGSGSGMWRLKVGKESVGEKEEKWIKSISNHLGRQVWEFCSGENENDDDEAIAVANNSASKFENARNHFRNNRFHRKQSSDLFLAIQCEKEIIRNGAKNEGTTKVKEGEDVKKEAVKNTLERALSFYSAVQTSDGNWASDLGGPMFLLPGLVIALYVTGVLNSVLSKHHRQEMCRYIYNHQNEDGGWGLHIEGSSTMFGSALNYVALRLLGEAADGGEHGAMTKARSWILERGGATAITSWGKLWLSVLGVYEWSGNNPLPPEFWLLPYSLPFHPGRMWCHCRMVYLPMSYLYGKRFVGPITPIVLSLRKELYTIPYHEIDWNRSRNTCAKEDLYYPHPKMQDILWGSIYHVYEPLFSGWPGKRLREKAMKIAMEHIHYEDENSRYICLGPVNKVLNMLCCWVEDPYSDAFKFHLQRIPDYLWLAEDGMRMQGYNGSQLWDTAFSIQAIISTKLIDTFGPTLRKAHHFVKHSQIQEDCPGDPNVWFRHIHKGAWPFSTRDHGWLISDCTAEGLKASLMLSKLPSKIVGEPLEKNRLCDAVNVLLSLQNENGGFASYELTRSYPWLELINPAETFGDIVIDYSYVECTSATMEALALFKKLHPGHRTKEIDAAIAKAANFLENMQKTDGSWYGCWGVCFTYAGWFGIKGLVAAGRTYNNCVAIRKACNFLLSKELPGGGWGESYLSCQNKVYTNLEGNKPHLVNTAWVMMALIEAGQGERDPAPLHRAARLLINSQLESGDFPQQEIMGVFNKNCMITYAAYRNIFPIWALGEYSHRVLDM
modifications: SS5d-G7 Full Gene AA seq
B5: SEQ ID NO 999: fusion protein having cucurbitadienol synthase activity (protein)
chain: MRGLTPKGSAAPGSGSGSGMWRLKVGKESVGEKEEKWIKSISNHLGRQVWEFCSGENENDDDEAIAVANNSASKFENARNHFRNNRFHRKQSSDLFLAIQCEKEIIRNGAKNEGTTKVKEGEDVKKEAVKNTLERALSFYSAVQTSDGNWASDLGGPMFLLPGLVIALYVTGVLNSVLSKHHRQEMCRYIYNHQNEDGGWGLHIEGSSTMFGSALNYVALRLLGEAADGGEHGAMTKARSWILERGGATAITSWGKLWLSVLGVYEWSGNNPLPPEFWLLPYSLPFHPGRMWCHCRMVYLPMSYLYGKRFVGPITPIVLSLRKELYTIPYHEIDWNRSRNTCAKEDLYYPHPKMQDILWGSIYHVYEPLFSGWPGKRLREKAMKIAMEHIHYEDENSRYICLGPVNKVLNMLCCWVEDPYSDAFKFHLQRIPDYLWLAEDGMRMQGYNGSQLWDTAFSIQAIISTKLIDTFGPTLRKAHHFVKHSQIQEDCPGDPNVWFRHIHKGAWPFSTRDHGWLISDCTAEGLKASLMLSKLPSKIVGEPLEKNRLCDAVNVLLSLQNENGGFASYELTRSYPWLELINPAETFGDIVIDYSYVECTSATMEALALFKKLHPGHRTKEIDAAIAKAANFLENMQKTDGSWYGCWGVCFTYAGWFGIKGLVAAGRTYNNCVAIRKACNFLLSKELPGGGWGESYLSCQNKVYTNLEGNKPHLVNTAWVMMALIEAGQGERDPAPLHRAARLLINSQLESGDFPQQEIMGVFNKNCMITYAAYRNIFPIWALGEYSHRVLDM
modifications: SS5e-C10 Full Gene AA seq
B6: SEQ ID NO 1003: fusion protein having cucurbitadienol synthase activity (protein)
chain: MANQIANQGSAAPGSGSGSGMWRLKVGKESVGEKEEKWIKSISNHLGRQVWEFCSGENENDDDEAIAVANNSASKFENARNHFRNNRFHRKQSSDLFLAIQCEKEIIRNGAKNEGTTKVKEGEDVKKEAVKNTLERALSFYSAVQTSDGNWASDLGGPMFLLPGLVIALYVTGVLNSVLSKHHRQEMCRYIYNHQNEDGGWGLHIEGSSTMFGSALNYVALRLLGEAADGGEHGAMTKARSWILERGGATAITSWGKLWLSVLGVYEWSGNNPLPPEFWLLPYSLPFHPGRMWCHCRMVYLPMSYLYGKRFVGPITPIVLSLRKELYTIPYHEIDWNRSRNTCAKEDLYYPHPKMQDILWGSIYHVYEPLFSGWPGKRLREKAMKIAMEHIHYEDENSRYICLGPVNKVLNMLCCWVEDPYSDAFKFHLQRIPDYLWLAEDGMRMQGYNGSQLWDTAFSIQAIISTKLIDTFGPTLRKAHHFVKHSQIQEDCPGDPNVWFRHIHKGAWPFSTRDHGWLISDCTAEGLKASLMLSKLPSKIVGEPLEKNRLCDAVNVLLSLQNENGGFASYELTRSYPWLELINPAETFGDIVIDYSYVECTSATMEALALFKKLHPGHRTKEIDAAIAKAANFLENMQKTDGSWYGCWGVCFTYAGWFGIKGLVAAGRTYNNCVAIRKACNFLLSKELPGGGWGESYLSCQNKVYTNLEGNKPHLVNTAWVMMALIEAGQGERDPAPLHRAARLLINSQLESGDFPQQEIMGVFNKNCMITYAAYRNIFPIWALGEYSHRVLDM
modifications: SS5e-G8 Full Gene AA seq

Tested on: cucurbitadienol synthase activity
Assay: Cucurbitadienol synthase activities of fusion proteins in yeast strain with oxidosqualene boost, LCMS
Type: cell-based, S. cerevisiae
Settings: average % activities over the average activities of the parent enzyme (Cucumis melo cucurbitadienol synthase)
In short: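 Codon-optimized Cucumis melo cucurbitadienol synthase with N- or C-terminal fusion peptides, expressed in an oxidosqualene-boosted yeast strain. Product measured by LCMS (C4 column, positive ESI SIM at 427 and 409) relative to internal standard; activity scored as average % of parent enzyme (n=8).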

Molecule	Activity (as compared to the parent)
B1	80%
B2	111%
B3	114%
B4	124%
B5	103%
B6	118%
